# Test results as given in the supplement of paper PMC12217912.
# The list shows a part of the results. The full chains were built here from the parent and the listed change. Values near 0.05 are background.
# B1: TEV protease; numbered along this chain (parent)
# chain: MGESLFKGPRDYNPISSSICHLTNESDGHTTSLYGIGFGPFIITNKHLFRRNNGTLVVQSLHGVFKVKDTTTLQQHLVDGRDMIIIRMPKDFPPFPQKLKFREPQREERICLVTTNFQTKSMSSMVSDTSCTFPSGDGIFWKHWIQTKDGQCGSPLVSTRDGFIVGIHSASNFTNTNNYFTSVPKNFMELLTNQEAQQWVSGWRLNADSVLWGGHKVFMVKPEEPFQPVKEATQL
# Variants of: B1
# Test: raw area under fraction-flipped curve 0-4 h after induction (AUC4h, not background-subtracted), DNA-recorder readout of cleavage of the substrate (dimensionless); higher = more cleavage of the substrate by the protease variant
# Details: temperature: 34 °C; time window: 0-4 h after rhamnose induction
# 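Further: Bxb1 expression induced with 0.2% (w/v) L-rhamnose at OD600 near 0.5, cultures sampled hourly, flipped fraction per protease–substrate barcode pair counted by paired-end Illumina sequencing.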
Variant,area with substrate ENLYFQD,area with substrate ENLYFQG,area with substrate ENLYFQI,area with substrate ENLYFQK,area with substrate ENLYFQL,area with substrate ENLYFQM,area with substrate ENLYFQQ,area with substrate ENLYFQR,area with substrate ENLYFQS,area with substrate ENLYFQT,area with substrate ENLYFQW,area with substrate ENLYFQY,area with substrate ENLYFQE,area with substrate ENLYFQH,area with substrate ENLYFQN,area with substrate ENLYFQV,area with substrate ENLYFQF,area with substrate ENLYFQP
MGESLFKGPRDYNPISSSICHLTNESDGHTTSLYGIGFGPFIITNKPLFRRNNGTLVVQSLHGVFKVKDTTTLQQHLVDGRDMIIIRMPKDFPPFPQKLKFREPQREERICLVTTNFQTKSMSSMVSDTSCTFPSGDGIFWKHWIQTKDGQCGSPLVSTRDGFIVGIHSASNFTNTNNYFTSVPKNFMELLTNQEAQQWVSGWRLNADSVLWGGHKVFMVKPEEPFQPVKEATQL [H47P],0.0624,0.0688,0.0574,0.0516,0.0584,0.047,0.0676,0.0551,0.0593,0.0658,0.066,0.0579,,,,,,
MGESLFKGPRDYNPISSSICHLTNESDGHTTSLYGIGFGPFIITNKHLFRRNNGTLVVQSLHGVFKVKDTTTWQQHLVDGRDMIIIRMPKDFPPFPQKLKFREPQREERICLVTTNFQTKSMSSMVSDTSCTFPSGDGIFWKHWIQTKDGQCGSPLVSTRDGFIVGIHSASNFTNTNNYFTSVPKNFMELLTNQEAQQWVSGWRLNADSVLWGGHKVFMVKPEEPFQPVKEATQL [L73W],,,,,0.0567,0.0619,0.0564,0.0505,0.0666,0.0489,,0.0655,0.0698,0.0674,0.0591,0.0577,,
MGESLFKGPRDYNPISSSICHLTNESDGHTTSLYGIGFGPFIITNKHLFRRNNGTLVVQSLHGVFKVKDTTTLQQHLVDGRDMIIIRMPKDFPPFPQKLKFREPQREERICLVTTNFQTKSMSSMVSDTSCTFPGGDGIFWKHWIQTKDGQCGSPLVSTRDGFIVGIHSASNFTNTNNYFTSVPKNFMELLTNQEAQQWVSGWRLNADSVLWGGHKVFMVKPEEPFQPVKEATQL [S135G],0.0496,0.0752,0.0918,0.07,0.0591,0.0645,,0.0511,0.0834,0.0555,0.0531,0.0653,,0.0453,,0.0518,0.0492,0.0694
MGESLFKGPRDYNPISSSICHLTNESDGHTTSLYGIGFGPFIITNKHLFRRNNGTLVVQSLHGVFKVKDTTTLQQHLVDGRDMIIIRMPKDFPPFPQKLKFREPQREERICLVTTNFQTKSMSSMVSDTSCTFPVGDGIFWKHWIQTKDGQCGSPLVSTRDGFIVGIHSASNFTNTNNYFTSVPKNFMELLTNQEAQQWVSGWRLNADSVLWGGHKVFMVKPEEPFQPVKEATQL [S135V],0.068,0.0749,0.0787,0.0756,0.061,0.0687,0.0472,,0.0781,0.045,0.0651,0.055,,,0.0496,0.0393,0.0471,0.0752
MGESLFKGPRDYNPISSSICHLTNESDGHTTSLYGIGFGPFIITNKHLFRRNNGTLVVQSLHGVFKVKDTTTLQQHLVDGRDMIIIRMPKDFPPFPQKLKFREPQREERICLVTFNFQTKSMSSMVSDTSCTFPSGDGIFWKHWIQTKDGQCGSPLVSTRDGFIVGIHSASNFTNTNNYFTSVPKNFMELLTNQEAQQWVSGWRLNADSVLWGGHKVFMVKPEEPFQPVKEATQL [T115F],0.0582,0.0999,0.0538,0.0592,0.0432,,,0.0494,0.102,,,0.0807,,0.0768,0.0668,,,0.0433
MGESLFKGPRDYNPISSSICHLTNESDGHTTSLYGIGFGPFIITNKHLFRRNNGTLVVQSLHGVFKVKDTTTLQQHLVDGRDMIIIRMPKDFPPFPQKLKFREPQREERICLVTENFQTKSMSSMVSDTSCTFPSGDGIFWKHWIQTKDGQCGSPLVSTRDGFIVGIHSASNFTNTNNYFTSVPKNFMELLTNQEAQQWVSGWRLNADSVLWGGHKVFMVKPEEPFQPVKEATQL [T115E],0.0829,,0.0641,,0.0719,0.0947,,,0.106,0.0715,,0.112,,0.112,,0.0591,,
MGESLFKGPRDYNPISSSICHLTNESDGHTTSLYGIGFGPFIITNKHLFRRNNGTLVVQSLHGVFKVKDTTTLQQHLVDGRDMIIIRMPKDFPPFPQKLKFREPQREMRICLVTTNFQTKSMSSMVSDTSCTFPSGDGIFWKHWIQTKDGQCGSPLVSTRDGFIVGIHSASNFTNTNNYFTSVPKNFMELLTNQEAQQWVSGWRLNADSVLWGGHKVFMVKPEEPFQPVKEATQL [E108M],0.0581,,0.0547,0.0618,0.0571,,0.0659,0.0718,0.0851,0.0683,0.061,0.0586,0.0516,,0.0698,0.0642,,0.0555
MGESLFKGPRDYNPISSSICHLTNESDGHTTSLYGIGFGPFIITNKHLFRRNNGTLVVQSLHGVFKVKDTTTLQQHLVDGRDMIIIRMPKDFPPFPQKLKFREPQREERICLVTTNFQTKSMSSMVSDTSCTFPSGDGIFWKHWIQTKDGQCGSPLVSTRDGFIVLIHSASNFTNTNNYFTSVPKNFMELLTNQEAQQWVSGWRLNADSVLWGGHKVFMVKPEEPFQPVKEATQL [G166L],0.0585,0.0449,,0.0615,,0.0546,,,0.0516,,,,,,,,,0.0448
MGESLFKGPRDYNPISSSICHLTNESDGHTTSLYGIGFGPFIITNKHLFRRNNGTLVVQSLHGVFKVKDTTTLQQHLVDGRDMIIIRMPKDFPPFPQKLKFREPQREERICLVTTNFQTKSMSSMVSDTSCTFPSGDGIFWKHWIQTKDGQCGSPLVSTRDGFIVGIHSASNFTNTNNYFTSVPKNFMELLTNQEAQQWVSGWRLNADSVLWGGHKVFMVKPEEDFQPVKEATQL [P225D],,0.103,0.0429,,,,,0.0685,0.103,,,,0.0593,0.068,0.0821,,,
MGESLFKGPRDYNPISSSICHLTNESDGHTTSLYGIGFGPFIITNKHLFRRNNGTLVVQSLHGVFKVKDTTTLQQHLVDGRDMIIIRMPKDFPPFPQKLKFREPQREERICLVTTNFQTKSMSSMVSDTSCTFPSGDGIFWKHWIQTKDGQCGSPLVSTRDGFIVGIHSASNFTNTNNYFTSVPKNFMELLTGQEAQQWVSGWRLNADSVLWGGHKVFMVKPEEPFQPVKEATQL [N193G],0.0721,,,,,,,0.0524,0.0942,0.0677,0.0689,0.0883,,,,,,
